The record followed here is the supplement of paper PMC11876631.

The labels stand for the following.
B1: lolE L193A (protein)
chain: MAMPLSLLIGLRFSRGRRRGGMVSLISVISTIGIALGVAVLIVGLSAMNGFERELNNRILAVVPHGEIEAVDQPWTNWQEALDHVQKVPGIAAAAPYINFTGLVESGANLRAIQVKGVNPQQEQRLSALPSFVQGDAWRNFKAGEQQIIIGKGVADALKVKQGDWVSIMIPNSNPEHKLMQPKRVRLHVAGIAQLSGQLDHSFAMIPLADAQQYLDMGSSVSGIALKMTDVFNANKLVRDAGEVTNSYVYIKSWIGTYGYMYRDIQMIRAIMYLAMVLVIGVACFNIVSTLVMAVKDKSGDIAVLRTLGAKDGLIRAIFVWYGLLAGLFGSLCGVIIGVVVSLQLTPIIEWIEKLIGHQFLSSDIYFIDFLPSELHWLDVFYVLVTALLLSLLASWYPARRASNIDPARVLSGQ
B2: lolE M293A (protein)
chain: B1 chain with A193L, M293A
B3: lolE V292W (protein)
chain: B1 chain with A193L, V292W
B4: lolE L193D (protein)
chain: B1 chain with A193D
B5: lolE V292A (protein)
chain: B1 chain with A193L, V292A
B6: lolE M293W (protein)
chain: B1 chain with A193L, M293W
B7: lolE M293Q (protein)
chain: B1 chain with A193L, M293Q
B8: lolE L193Q (protein)
chain: B1 chain with A193Q
B9: lolE L193W (protein)
chain: B1 chain with A193W
B10: lolE V292Q (protein)
chain: B1 chain with A193L, V292Q
B11: lolE L193P (protein)
chain: B1 chain with A193P
B12: aroC V339A (protein)
chain: MAGNTIGQLFRVTTFGESHGLALGCIVDGVPPGIPLTEADLQHDLDRRRPGTSRYTTQRREPDQVKILSGVFEGVTTGTSIGLLIENTDQRSQDYSAIKDVFRPGHADYTYEQKYGLRDYRGGGRSSARETAMRVAAGAIAKKYLAEKFGIEIRGCLTQMGDIPLDIKDWSQVEQNPFFCPDPDKIDALDELMRALKKEGDSIGAKVTVVASGVPAGLGEPVFDRLDADIAHALMSINAVKGVEIGDGFDVVALRGSQNRDEITKDGFQSNHAGGILGGISSGQQIIAHMALKPTSSITVPGRTINRFGEEVEMITKGRHDPCVGIRAVPIAEAMLAIALMDHLLRQRAQNADVKTDIPRW

Numbering of substitutions follows the chain as printed. Names may count otherwise. ± gives the standard deviation of the averaged measurements. Laboratory Escherichia coli strains with one amino-acid change in an essential protein, pooled on minimal glucose agar with carbenicillin or gentamicin at twice the control MIC (plus kanamycin and chloramphenicol for the plasmids), 48 h. Fold change of barcode share against drug-free plates; higher = less susceptible. Active = above 20 in both replicates (the paper's putatively resistant). '<' = one read or none on drug, '>' = one read or none on a drug-free plate. Shares are relative, so most strains fall below 1 when a few take over. Listed are strains with at least 15 reads on both drug-free plates, and hits; most hits rest on fewer reference reads. Replicate rank correlation about 0.5. Edits are read from barcodes. Bounds are passed on as bounds.

In one data set the target is Escherichia coli (laboratory strain). The data set can be described thus: barcode share on antibiotic plates over drug-free plates; higher = less susceptible. The note with it: antibiotic: carbenicillin; 2× MIC (3.1 µg/mL). The procedure: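 A pool of E. coli strains, each edited to carry one amino-acid change in an essential protein, was grown for 48 h on minimal glucose agar with or without antibiotic; strain barcodes were sequenced; mean of two replicates.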
On to B1, for which the “fold change of barcode share” value came to 0.233 ± 0.15.

Consider B2, for which the “fold change of barcode share” value is 0.194 ± 0.021.

B3: the “fold change of barcode share” value worked out at 0.231 ± 0.088.

For the protein B4, the “fold change of barcode share” value came to 0.281 ± 0.042.

Turning to B5, the “fold change of barcode share” value stood at 0.21 ± 0.12.

On to B6, for which the “fold change of barcode share” value stood at 0.608 ± 0.055.

As to B7, the “fold change of barcode share” value was 0.297 ± 0.033.

With B8, the “fold change of barcode share” value is 0.164 ± 0.098.

B9: the “fold change of barcode share” value is 0.301 ± 0.12.

Consider B10, for which the “fold change of barcode share” value amounted to 0.219 ± 0.08.

Regarding B11, the “fold change of barcode share” value amounted to 0.208 ± 0.039.

In the case of B12, the “fold change of barcode share” value was 0.202 ± 0.053.

The same data set, now with this note: antibiotic: gentamicin; 2× MIC (MIC 0.45 µg/mL).
In the case of B1, the “fold change of barcode share” value stood at 0.0172 ± 0.0015.

As for B2, the “fold change of barcode share” value was determined as 0.0111 ± 0.0071.

Turning to B3, the “fold change of barcode share” value is less than 0.0102.

Regarding B4, the “fold change of barcode share” value was less than 0.0114.

In the case of B5, the “fold change of barcode share” value is less than 0.0105.

Consider B6, for which the “fold change of barcode share” value was less than 0.00841.

B7: the “fold change of barcode share” value came to 0.00664 ± 0.00063.

On to B8, for which the “fold change of barcode share” value was less than 0.016.

In the case of B9, the “fold change of barcode share” value was less than 0.0061.

With B10, the “fold change of barcode share” value is less than 0.0124.

With B11, the “fold change of barcode share” value is less than 0.0125.

Consider B12, for which the “fold change of barcode share” value was 0.984 ± 1.4.
